{"source": "the BET-seq Pho4 binding data (Le et al. 2018)", "note": "This is one part of the list. The energies were worked out here from pooled read counts, against the library average; single values are noisy.", "data": [{"molecular_target": "T1, Pho4 (S. cerevisiae) (UniProt P07270)", "T1 sequence": "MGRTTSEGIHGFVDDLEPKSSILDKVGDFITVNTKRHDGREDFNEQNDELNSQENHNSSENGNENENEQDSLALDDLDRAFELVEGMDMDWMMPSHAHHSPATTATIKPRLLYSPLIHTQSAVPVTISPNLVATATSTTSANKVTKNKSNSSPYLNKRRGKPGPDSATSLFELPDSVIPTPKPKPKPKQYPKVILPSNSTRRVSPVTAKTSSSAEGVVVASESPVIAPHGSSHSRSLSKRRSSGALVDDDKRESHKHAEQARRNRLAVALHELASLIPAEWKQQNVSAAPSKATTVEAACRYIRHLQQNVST", "assay": "relative binding free energy (BET-seq); higher = weaker binding", "details": "reference: library average", "units": {"relative binding free energy": "kcal/mol"}, "values": [{"sequence": "CTGGCCACGTGGGAGG", "relative binding free energy": -0.23}, {"sequence": "CTCTGCACGTGGGTGT", "relative binding free energy": -0.21}, {"sequence": "GGGTTCACGTGTGTGG", "relative binding free energy": 0.34}, {"sequence": "TAGGTCACGTGCCTGG", "relative binding free energy": 0.12}, {"sequence": "TTGGACACGTGCTGTT", "relative binding free energy": -0.12}, {"sequence": "TGTTCCACGTGGATAT", "relative binding free energy": 0.02}, {"sequence": "ATGGTCACGTGAATAG", "relative binding free energy": 0.12}, {"sequence": "TTGTACACGTGATAGT", "relative binding free energy": 0.18}, {"sequence": "GGGTGCACGTGTGCGA", "relative binding free energy": -0.01}, {"sequence": "TGTGGCACGTGTTCGT", "relative binding free energy": -0.12}, {"sequence": "GGGTGCACGTGTATGA", "relative binding free energy": 0.04}, {"sequence": "CGGTACACGTGTGGAG", "relative binding free energy": 0.24}, {"sequence": "AGTAACACGTGCTGGT", "relative binding free energy": -0.1}, {"sequence": "GGAGGCACGTGGACGT", "relative binding free energy": -0.11}, {"sequence": "GGTGGCACGTGCGGTC", "relative binding free energy": -0.01}, {"sequence": "AGCATCACGTGGAGGT", "relative binding free energy": 0.18}, {"sequence": "AAACGCACGTGTGTGG", "relative binding free energy": -0.11}, {"sequence": "ATCGACACGTGTGAGT", "relative binding free energy": 0.2}, {"sequence": "ATTTACACGTGGGAAG", "relative binding free energy": 0.07}, {"sequence": "GGTATCACGTGCGTGT", "relative binding free energy": 0}, {"sequence": "TAGTACACGTGGTATG", "relative binding free energy": -0.1}, {"sequence": "TTTTTCACGTGCTGGG", "relative binding free energy": 0.26}, {"sequence": "AGATACACGTGCAGTG", "relative binding free energy": 0.11}, {"sequence": "ATGGTCACGTGTGGCA", "relative binding free energy": 0.22}, {"sequence": "ATGGACACGTGTTTCG", "relative binding free energy": -0.06}, {"sequence": "TACGTCACGTGGTGCG", "relative binding free energy": -0.1}, {"sequence": "TTTGACACGTGTTGTT", "relative binding free energy": 0.03}, {"sequence": "TGTTGCACGTGTCAGT", "relative binding free energy": 0.06}, {"sequence": "AGAGGCACGTGTGCGA", "relative binding free energy": -0.18}, {"sequence": "TTAAGCACGTGTAAAG", "relative binding free energy": -0.05}, {"sequence": "GGGTTCACGTGCAGGT", "relative binding free energy": 0.28}, {"sequence": "GGTGACACGTGTTGGT", "relative binding free energy": 0.18}, {"sequence": "GTGTACACGTGGAATT", "relative binding free energy": 0.28}, {"sequence": "GAGGACACGTGAGGTT", "relative binding free energy": 0.21}, {"sequence": "TTCGGCACGTGCGTAG", "relative binding free energy": -0.1}, {"sequence": "GGTAGCACGTGGCAGA", "relative binding free energy": 0.02}, {"sequence": "GTATACACGTGAAGAT", "relative binding free energy": 0.44}, {"sequence": "TTAAGCACGTGTGCCG", "relative binding free energy": 0.01}, {"sequence": "TGATGCACGTGTTTAA", "relative binding free energy": -0.03}, {"sequence": "TTAAACACGTGTGCGG", "relative binding free energy": -0.08}, {"sequence": "GTAACCACGTGATTGT", "relative binding free energy": 0.19}, {"sequence": "GTTGTCACGTGGTCCG", "relative binding free energy": 0.02}, {"sequence": "GGATACACGTGGGAGG", "relative binding free energy": 0.02}, {"sequence": "TGGGTCACGTGCTCGT", "relative binding free energy": 0.18}, {"sequence": "GTGTCCACGTGAGTAT", "relative binding free energy": 0.34}, {"sequence": "TAATGCACGTGTAGGC", "relative binding free energy": 0.05}, {"sequence": "GAGTTCACGTGAGGAA", "relative binding free energy": 0.43}, {"sequence": "TTTGCCACGTGAGTGG", "relative binding free energy": 0.36}, {"sequence": "ATTTACACGTGTTTGA", "relative binding free energy": 0.15}, {"sequence": "GAATTCACGTGCGGTT", "relative binding free energy": 0.23}, {"sequence": "TGGTGCACGTGCTGGG", "relative binding free energy": -0.03}, {"sequence": "GGTGTCACGTGGTTCG", "relative binding free energy": 0.09}, {"sequence": "AAGCGCACGTGGGTGA", "relative binding free energy": -0.27}, {"sequence": "GACAGCACGTGGGGTT", "relative binding free energy": -0.18}, {"sequence": "ATAAGCACGTGTGGGT", "relative binding free energy": -0.14}, {"sequence": "TTAACCACGTGTTGTT", "relative binding free energy": -0.04}, {"sequence": "ATGTTCACGTGTAAGA", "relative binding free energy": 0.46}, {"sequence": "ATTCTCACGTGGTGGT", "relative binding free energy": 0.13}, {"sequence": "GAAGTCACGTGTTAGT", "relative binding free energy": 0.15}, {"sequence": "TTCTGCACGTGGGGAG", "relative binding free energy": -0.16}, {"sequence": "GTGCTCACGTGAGATG", "relative binding free energy": 0.33}, {"sequence": "GATTGCACGTGGGTTC", "relative binding free energy": -0.02}, {"sequence": "GTGGTCACGTGTATGT", "relative binding free energy": 0.22}, {"sequence": "ACTGGCACGTGGTGGT", "relative binding free energy": -0.16}, {"sequence": "GGTCTCACGTGACGGT", "relative binding free energy": 0.46}, {"sequence": "GGGTGCACGTGTGCTA", "relative binding free energy": 0.03}, {"sequence": "TTTTGCACGTGATGCA", "relative binding free energy": 0.11}, {"sequence": "AATGTCACGTGCGATG", "relative binding free energy": 0.07}, {"sequence": "TTCAGCACGTGAGAGG", "relative binding free energy": 0.09}, {"sequence": "TTATACACGTGCGGTG", "relative binding free energy": 0.05}, {"sequence": "TATTGCACGTGTCTGC", "relative binding free energy": 0.12}, {"sequence": "AGTTGCACGTGGAATG", "relative binding free energy": 0.06}, {"sequence": "TCAGGCACGTGGGGTC", "relative binding free energy": -0.26}, {"sequence": "ATTTTCACGTGGGATC", "relative binding free energy": 0.25}, {"sequence": "TGTTACACGTGCTTGA", "relative binding free energy": 0.05}, {"sequence": "TGTGGCACGTGCTATG", "relative binding free energy": -0.24}, {"sequence": "GTGAACACGTGTGCGT", "relative binding free energy": -0.05}, {"sequence": "TCATTCACGTGGTATG", "relative binding free energy": 0.2}, {"sequence": "GAATACACGTGATGGT", "relative binding free energy": 0.17}, {"sequence": "GGGCTCACGTGTAGGC", "relative binding free energy": 0.36}, {"sequence": "CGGCACACGTGTGGGG", "relative binding free energy": 0.1}, {"sequence": "GCGTACACGTGAAGGG", "relative binding free energy": 0.43}, {"sequence": "CCGGGCACGTGGTCGG", "relative binding free energy": 0.07}, {"sequence": "CGATGCACGTGGGTCG", "relative binding free energy": -0.04}, {"sequence": "ATTAGCACGTGATGGC", "relative binding free energy": -0.04}, {"sequence": "TAGGACACGTGGGGGG", "relative binding free energy": -0.09}, {"sequence": "AAAGTCACGTGTAATT", "relative binding free energy": 0.35}, {"sequence": "TTATGCACGTGTCGAT", "relative binding free energy": -0.05}, {"sequence": "GTGTCCACGTGGGATG", "relative binding free energy": -0.12}, {"sequence": "TGGGTCACGTGACTCT", "relative binding free energy": 0.35}, {"sequence": "AGTCTCACGTGGTGGA", "relative binding free energy": 0.19}, {"sequence": "TTTTTCACGTGCAAAT", "relative binding free energy": 0.19}, {"sequence": "TGGACCACGTGTCGGG", "relative binding free energy": 0}, {"sequence": "ATCAACACGTGTGGTT", "relative binding free energy": 0.05}, {"sequence": "TCGGGCACGTGTAGCG", "relative binding free energy": -0.05}, {"sequence": "TCAGTCACGTGAGGTG", "relative binding free energy": 0.33}, {"sequence": "CATTTCACGTGTGTGT", "relative binding free energy": 0.25}, {"sequence": "AGGTTCACGTGGATGT", "relative binding free energy": 0.35}, {"sequence": "GTGTGCACGTGATATC", "relative binding free energy": 0.2}, {"sequence": "GTACTCACGTGTGTGT", "relative binding free energy": 0.15}, {"sequence": "ATAAACACGTGGGTTT", "relative binding free energy": -0.04}, {"sequence": "AGGCGCACGTGGGGTT", "relative binding free energy": -0.2}, {"sequence": "TCTTGCACGTGCTGTT", "relative binding free energy": -0.08}, {"sequence": "ATTCTCACGTGTATAG", "relative binding free energy": 0.21}, {"sequence": "TTATCCACGTGGGTAT", "relative binding free energy": -0.06}, {"sequence": "TGTCACACGTGCGTGG", "relative binding free energy": -0.08}, {"sequence": "AGCTTCACGTGGAGTG", "relative binding free energy": 0.05}, {"sequence": "AAAGGCACGTGTGGAG", "relative binding free energy": 0}, {"sequence": "TCCGGCACGTGTTGGA", "relative binding free energy": 0.09}, {"sequence": "TTTCTCACGTGCGTGG", "relative binding free energy": 0.12}, {"sequence": "ATTGACACGTGGGGGG", "relative binding free energy": -0.27}, {"sequence": "TCTTTCACGTGTTTTT", "relative binding free energy": 0.24}, {"sequence": "TGTGACACGTGTGCTC", "relative binding free energy": 0.17}, {"sequence": "TGGGGCACGTGGAGTG", "relative binding free energy": -0.14}, {"sequence": "AGTGCCACGTGTTGAA", "relative binding free energy": 0.03}, {"sequence": "AGACGCACGTGGCGGG", "relative binding free energy": -0.24}, {"sequence": "ACGGTCACGTGTCTGT", "relative binding free energy": 0.03}, {"sequence": "ATCTTCACGTGGTGTC", "relative binding free energy": 0.17}, {"sequence": "CTTGGCACGTGATATT", "relative binding free energy": -0.01}, {"sequence": "ATGAGCACGTGCTGGG", "relative binding free energy": -0.09}, {"sequence": "AAGGGCACGTGTGTCA", "relative binding free energy": -0.09}, {"sequence": "ATGGTCACGTGTGGGT", "relative binding free energy": 0.15}, {"sequence": "AGTTGCACGTGGATGC", "relative binding free energy": -0.06}, {"sequence": "CGTTACACGTGTGGCT", "relative binding free energy": 0.18}, {"sequence": "AGGGGCACGTGCGAGT", "relative binding free energy": -0.15}, {"sequence": "ATGGCCACGTGGTTGC", "relative binding free energy": -0.05}, {"sequence": "TTGGTCACGTGAATGA", "relative binding free energy": 0.42}, {"sequence": "ATGAGCACGTGTAAAG", "relative binding free energy": 0}, {"sequence": "CAGTGCACGTGGGGAT", "relative binding free energy": -0.34}, {"sequence": "TTAGGCACGTGGCTTG", "relative binding free energy": -0.03}, {"sequence": "AGTTTCACGTGTTTAT", "relative binding free energy": 0.26}, {"sequence": "GGTTCCACGTGTGGGG", "relative binding free energy": 0.2}, {"sequence": "GTGGTCACGTGATAAT", "relative binding free energy": 0.26}, {"sequence": "CCTGTCACGTGTGGTT", "relative binding free energy": 0.06}, {"sequence": "GTCGTCACGTGCGAGG", "relative binding free energy": 0.02}, {"sequence": "ATGCCCACGTGTTTGG", "relative binding free energy": -0.04}, {"sequence": "GCGTTCACGTGGGTTA", "relative binding free energy": 0.06}, {"sequence": "CTTGCCACGTGTAGGG", "relative binding free energy": -0.12}, {"sequence": "TTAAGCACGTGTTAGG", "relative binding free energy": -0.14}, {"sequence": "TTATACACGTGGCTTT", "relative binding free energy": -0.04}, {"sequence": "TTTGACACGTGGCTTT", "relative binding free energy": -0.03}, {"sequence": "TGGTACACGTGTCTAG", "relative binding free energy": 0.02}, {"sequence": "TTATTCACGTGGGGTT", "relative binding free energy": 0.01}, {"sequence": "CGTGGCACGTGCGCTG", "relative binding free energy": -0.26}, {"sequence": "GTACGCACGTGGGGTA", "relative binding free energy": -0.37}, {"sequence": "AAATGCACGTGAGGGC", "relative binding free energy": 0.14}]}]}
